Sequences and labels used below:
T1: UNK ZnF1-3 (human, UniProt Q9C0B0 31-174)
T1 sequence: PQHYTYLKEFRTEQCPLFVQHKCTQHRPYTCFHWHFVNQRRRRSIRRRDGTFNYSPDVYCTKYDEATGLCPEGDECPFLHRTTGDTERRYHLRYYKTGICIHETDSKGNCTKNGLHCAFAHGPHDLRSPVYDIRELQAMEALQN

B1: chr14:45754706:45754707:-_ENSMUSG00000021830_ENSMUST00000139526|mus_mus|motif|central (ssRNA)
RNA: GGGAGUUCUACAGUCCGACGAUCGUAACUAGACGGAAGAUAUGCAGAUCCCACUGUGCUACAGGCUACUACAAGGUUGCGGAUUAUGCAACCUUGGUGACUAAUGACAUUAAAAGAAAGACAAUUCUUUGAUGGAGGAUCCAUCAACAGAGGAUUGAGCAUCA
B2: chr10:33190432:33190433:-_ENSG00000150093_ENST00000302278|hu_mus|hu_hu_hu_mus_True|1_78 (ssRNA)
RNA: GGGAGUUCUACAGUCCGACGAUCUACAUUUUCCAAACCUGCAUGUGAAUAAAACCCUGGCAAUAUUGCCCCAAAACUACCCUACUGUGACUAAGAUGCUGCUGCUGUGAGCUUGGUGUUGCAAAAUCCGCCUGAGUCAGUACUCAACAGAGGAUUGAGCAUCA
B3: 176756163_176763977_1184_CDS_ENSG00000177565_ENST00000430069|human|control|control (ssRNA)
RNA: GGGAGUUCUACAGUCCGACGAUCAUCUGUACUACAAGAAGCAAAGGUGUUGUUGCUCUGCCAAUCAACAUCCAAUGCUGGUGCUGAAUGAAAAGGAAACUGUUGCUUGGCUUCACCAGUAUGUGCGUCCCAAAUAAUUGUAGUCAACAGAGGAUUGAGCAUCA
B4: chr2:47635579:47635580:+_ENSG00000095002_ENST00000543555|hu_hu|FALSE|FALSE (ssRNA)
RNA: GGGAGUUCUACAGUCCGACGAUCACUCUAUACUGACGAACCAGAAGAAGAUCUUUUACAAAAGAUUCAAAAUUCAUUUUACUAAGCACAACACUCUGCAGAUUCUUUGCUCCUGCCGGCCCCAUGUACUUGAUCACCCCCUGGCAACAGAGGAUUGAGCAUCA
B5: chr7:56126124:56126125:+_ENSG00000146731_ENST00000540286|hu_mus|FALSE|FALSE (ssRNA)
RNA: GGGAGUUCUACAGUCCGACGAUCUUGAUUAAUAACGACAAAUCCUUUAUCUGAGUCACCACAGACUUUCUUUUUCAGCUCUAUGAUUUUUUUAACUCUAUCUUCAAUGAAUUUUCUUUCAGCCUUUACUAGUUUUUCUCUCUCCAACAGAGGAUUGAGCAUCA
B6: chr18:35731935:35731936:+_ENSMUSG00000037236_ENSMUST00000166793|perfect_dup|motif|central (ssRNA)
RNA: GGGAGUUCUACAGUCCGACGAUCAGGGAGUGGACCUCUACUUCCAAUGUUAAAUAUAGACUGCAAAUUAUGGGAAGAAGUACGGGCAGAAGACAGUGCACUAUGAGCUCCUUGUUGAUUCAAUGAAGAACUCAUUCCAAGAUUCAACAGAGGAUUGAGCAUCA

Some of the results follow.

This test has as its target T1, UNK ZnF1-3. As to the kind of experiment: nsRBNS (natural sequence RNA bind-n-seq); RBNS binding buffer (assumed for nsRBNS): 25 mM Tris pH 7.5, 150 mM KCl, 3 mM MgCl2, 0.01% Triton X-100, 500 ug/ml BSA, 20 U/ml SUPERase-In, 4 C; UNK is unkempt and MSI1 is Musashi-1; names of the RNAs are library labels; protein concentration not given here; high values mean tight binding.
Molecule B1 returned a binding signal of 0.906 enrichment R.

Regarding B2, the binding signal was determined as 1.13 enrichment R.

As for B3, the binding signal was found to be 0.939 enrichment R.

In turn, B4 returned a binding signal of 1.54 enrichment R.

Molecule B5 gave a binding signal of 0.506 enrichment R.

In turn, B6 yielded a binding signal of 1.11 enrichment R.

The values are drawn from publication PMC12136788.
